In PMC4336329 (PLoS ONE, 2015):
Among all 310,000 compounds or so, about 2,200 (0.71%) showed an effect of 50% or more. The effect is printed as a negative number. This is one part of the list.

Each compound was assayed against human ether-à-go-go-related gene (hERG) potassium channel (human, UniProt Q12809) (assay: primary screen, population patch clamp on CHO cells stably expressing hERG).
Chain of human ether-à-go-go-related gene (hERG) potassium channel (Q12809 whole entry, looked up): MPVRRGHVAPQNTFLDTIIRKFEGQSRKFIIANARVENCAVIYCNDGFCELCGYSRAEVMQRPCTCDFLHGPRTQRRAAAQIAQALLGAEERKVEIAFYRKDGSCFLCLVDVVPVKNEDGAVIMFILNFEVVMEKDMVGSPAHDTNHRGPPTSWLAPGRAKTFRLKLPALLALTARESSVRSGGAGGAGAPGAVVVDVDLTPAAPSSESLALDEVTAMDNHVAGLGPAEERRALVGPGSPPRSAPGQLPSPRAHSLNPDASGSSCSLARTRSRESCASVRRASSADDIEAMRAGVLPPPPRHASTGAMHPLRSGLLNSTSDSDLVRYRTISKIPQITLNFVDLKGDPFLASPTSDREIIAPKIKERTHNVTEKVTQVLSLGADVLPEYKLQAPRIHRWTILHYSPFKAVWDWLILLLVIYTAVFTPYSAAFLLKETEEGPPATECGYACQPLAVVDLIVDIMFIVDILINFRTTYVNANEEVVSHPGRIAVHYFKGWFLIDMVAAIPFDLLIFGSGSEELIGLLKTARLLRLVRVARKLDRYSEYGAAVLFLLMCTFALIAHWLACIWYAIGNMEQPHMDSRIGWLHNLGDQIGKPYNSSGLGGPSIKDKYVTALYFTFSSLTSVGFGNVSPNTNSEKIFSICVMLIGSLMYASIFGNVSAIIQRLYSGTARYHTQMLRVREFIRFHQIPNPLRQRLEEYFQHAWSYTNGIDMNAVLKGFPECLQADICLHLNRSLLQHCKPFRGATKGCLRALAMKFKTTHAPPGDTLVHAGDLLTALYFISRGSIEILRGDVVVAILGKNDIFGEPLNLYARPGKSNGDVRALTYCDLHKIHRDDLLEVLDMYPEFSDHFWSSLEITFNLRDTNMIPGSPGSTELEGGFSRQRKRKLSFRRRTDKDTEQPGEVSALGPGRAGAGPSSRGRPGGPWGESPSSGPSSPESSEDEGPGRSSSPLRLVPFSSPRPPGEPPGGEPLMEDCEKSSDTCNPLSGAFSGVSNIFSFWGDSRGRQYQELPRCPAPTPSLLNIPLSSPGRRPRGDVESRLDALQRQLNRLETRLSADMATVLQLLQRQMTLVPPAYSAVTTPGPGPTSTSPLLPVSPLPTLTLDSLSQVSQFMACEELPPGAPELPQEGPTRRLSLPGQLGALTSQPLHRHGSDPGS

Row | SMILES | hERG current change (%, negative = inhibition) at 1uM [%]
1 | CCN(CC)S(=O)(=O)c1ccc(C(=O)NCc2cccs2)cc1 | 3.64
2 | CCCCOc1ccc(CC(=O)NO)cc1 | 15.9
3 | CC1CCCCN1C(=O)/C=C/c1ccccc1[N+](=O)[O-] (stereo not drawn) | -3.02
4 | CCNc1nc(NC(C)C)nc(SCCOc2ccc(C)cc2)n1 | 2.7
5 | CCN1CCN(C(c2cccs2)C(C)NC(=O)c2ccccc2F)CC1 (stereo not drawn) | 2.9
6 | O=P(O)(O)Oc1ccccc1P(=O)(c1ccccc1)c1ccccc1 | 20.8
7 | Cc1ccc(-n2c(SCC(=O)Nc3cccc(S(=O)(=O)NC4=NCCCCC4)c3)nc3ccccc3c2=O)cc1C | 13.6
8 | CCOc1ccc(OCC(=O)Nc2ccccc2N2CCCC2)cc1 | 15.4
9 | Cc1cc(CNC(=O)Cn2nc(C)c([N+](=O)[O-])c2C)c2ccccc2n1 | 8.44
10 | Cc1ccsc1/C=N/N1CCN(C2c3ccccc3-c3ccccc32)CC1 | 13.9
11 | CCn1c(SC(C)C(=O)Nc2ccc(N3CCOCC3)cc2)nnc1-c1ccco1 (stereo not drawn) | 5.78
12 | Cc1ccc(NC(=O)CS(=O)CC(=O)N(CC(=O)NC2CCCC2)c2ccc3c(c2)OCCO3)cc1 (stereo not drawn) | 17.2
13 | COc1ccc(-c2nn(-c3ccccc3)cc2/C=C/C(=O)OCC(=O)Nc2ccccc2C#N)cc1 | 8.03
14 | Cc1nn(CCC(=O)NCc2ccc(N(C)C)cc2)c(=O)c2nn(-c3ccccc3)c(C)c12 | 13.7
15 | CCCc1nc2ccc(N)cc2c(=O)n1Cc1ccccc1Cl | 6.69
16 | COc1ccc(-n2nc3c(N4CCC(C(=O)NCc5ccccc5C)CC4)nnc(C)c3c2C)cc1 | 12.1
17 | COC(=O)Cc1csc(Nc2ccc(F)c(Cl)c2)n1 | -2.69
18 | O=C(NCCCNC(=O)c1ccco1)c1ccc(Cl)cc1 | 6.25
19 | Cc1ccccc1OCC(=O)N/N=C/c1ccc(N2CCOCC2)o1 | 9.47
20 | O=C(C[n+]1ccc(/C=N/O)cc1)NC(=O)Nc1ccccc1 | 10.1
21 | Cc1ccc(S(=O)(=O)NC(CC(C)C)C(=O)NCC(C)(C)N2CCOCC2)cc1 (stereo not drawn) | 15.3
22 | O=C(COC(=O)Cn1cnc2ccccc2c1=O)Nc1ccc(Cl)c(C(F)(F)F)c1 | 2.13
23 | Cc1ccccc1NC(=O)C(Cl)=C(Cl)Cl | 11.6
24 | COc1ccc(C(=O)CSc2ccc(-c3ccco3)nn2)cc1 | -6.45
25 | CCn1cc(CNC(=O)/C=C/c2ccc([N+](=O)[O-])cc2)cn1 | 4.05
26 | CC(=O)Nc1ccc(C(=O)OCc2ccc(Cl)cc2)cc1 | 2.27
27 | COc1cc(Br)c(CN2C(=O)NC3(CCCCCC3)C2=O)cc1OC | 14.5

Row | SMILES | hERG current change (%, negative = inhibition) at 1uM [%]
28 | CC(C)CCN(C(=O)CNC(=O)c1ccco1)C(C(=O)NC1CCCCC1)c1ccco1 (stereo not drawn) | 1.84
29 | COc1ccc([C@@H]2CC=C(C(=O)O)[C@H](c3ccccc3)N2S(=O)(=O)c2ccc(C)cc2)cc1OC | 8.43
30 | CCN1C(=O)[C@H]2[C@@H](c3ccc(C)cc3)N3C(=O)N(c4ccc(OC)cc4)C(=O)[C@@]3(C)[C@H]2C1=O | 9.86
31 | CC1=NN(C(N)=S)C(=O)C1N=Nc1ccc(Cl)cc1 (stereo not drawn) | 6.7
32 | COC(=O)CCNC(=O)c1nn(Cc2ccccc2)c(=O)c2ccccc12 | 8.03
33 | COc1ccc(NC(=O)CN2CCc3ccccc3C2)cc1S(=O)(=O)N1CCOCC1 | 1.41
34 | CC1CC(C)(C)NC(=S)N1CCCC(=O)Nc1ccc2c(c1)OCCO2 (stereo not drawn) | 4.15
35 | CCOC(=O)c1nn(-c2ccc(F)cc2)c(=O)c(C#N)c1C | 40.1
36 | COc1ccc(S(=O)(=O)NC(C)C(=O)Nc2cccc(C(C)=O)c2)cc1 (stereo not drawn) | 4.36
37 | CC(CC(=O)Nc1ccc2c(c1)OCO2)c1ccccc1 (stereo not drawn) | 3.96
38 | O=C(N/N=C/C=C/c1ccccc1[N+](=O)[O-])c1cc(-c2ccccc2)n[nH]1 | 9.72
39 | CCOc1ccc(Nc2nc(N)c3ccccc3n2)cc1.Cl | 3.67
40 | COCCn1c(SCc2cc(=O)n3cc(C)ccc3n2)nc2ccccc2c1=O | 7.79
41 | O=C(c1ccccc1)N1CCN(Cc2cccc(Oc3ccccc3)c2)CC1 | 1.26
42 | N#Cc1cccc(NC(=O)Nc2cccs2)c1 | 15.1
43 | C/C(=C1/SC(=S)N(CCC(=O)O)C1=O)c1ccc(O)cc1 | 10.3
44 | Cc1cc(N2CCN(C)CC2)nc2ccc(NC(=S)NCCC(C)C)cc12 | -0.13
45 | CO[C@H]1[C@@H](OC)CC(OC2OC(CO)C(O)C(O)C2O)/C(=C\C#N)[C@@H]1O (stereo partly drawn) | 12.2
46 | O=C(O)C(=O)O.O=C(c1ccco1)N1CCN(Cc2cccnc2)CC1 | 4.97
47 | CCc1ccccc1NC(=O)CCN1C(=O)C2CC=CCC2C1=O (stereo not drawn) | 14
48 | CCC1=Nc2cc(C(=O)NCCCOC(C)C)ccc2Sc2ccccc21 | 10.9
49 | CCCn1nc(C(=O)NNC(=O)CCCOc2ccc(OC)cc2)c2ccccc2c1=O | -4.01
50 | CCOc1ccc(NC(=O)NC(C)c2ccc3c(c2)OCO3)cc1 (stereo not drawn) | 10.1
51 | O=C(CN1C(=O)c2ccccc2C1=O)Nc1ccc(-c2nc3ccccc3o2)cc1 | 2.99
52 | Cc1ccc(N(CC(=O)Nc2cc(C)cc(C)c2)S(=O)(=O)c2cccc3nonc23)cc1 | 10.3
53 | COc1ccc([C@H]2CC(=O)C=C(c3ccc(Cl)c(Cl)c3)C2)cc1 | 18.1
54 | Cc1ccc(OCC(=O)c2cc(C)n(CC(F)(F)F)c2C)c([N+](=O)[O-])n1 | 12.1
